Reference: ChEMBL document CHEMBL1201862, “PubChem BioAssay data set” (2004)

Each compound was assayed on NCI-H322M (assay: NCI anticancer screen, dose series, 48 h).

Row | Structure (SMILES) | GI50
1 | O=C1C(Cl)=C(N2CCN(CCOCCO)CC2)C(=O)c2ncccc21 | inactive: > 10 µM
2 | O=C(N/N=C\c1cccc(O)c1)c1ccncc1 | inactive: > 100 µM
3 | O=C1[C@@H]2[C@@H](CN3CN(c4ccccc4)N=C(c4ccccc4)[C@@]23c2ccccc2)C(=O)N1c1ccccc1 | inactive: 17.1 µM
4 | Cc1cc2c3c(c1)CCCN3CCC2 | inactive: > 10 µM
5 | Cc1c(C)n(-c2ccccc2)c2nc(S(C)(=O)=O)nc(S(C)(=O)=O)c12 | inactive: 18.7 µM
6 | C=C(C(=O)O)C1CCC(CC/C=C(\C)CC/C=C(\C)CCC=C(C)C)CO1 (stereo unspecified) | inactive: 18.2 µM
7 | Cc1c2c(c(C)n1-c1ccccc1)C(=O)N(CCN1CCN(c3cccc(C(F)(F)F)c3)CC1)C2=O | inactive: > 100 µM
8 | CCOC(=O)c1cc(C(=O)O)c(=O)n2c1[nH]c1ccccc12 | inactive: > 100 µM
9 | CCNC(=S)NNC(=O)c1nsc2ccccc12 | inactive: 71.3 µM
10 | CCOc1c(OC)cc(CNNc2nccs2)cc1OC | inactive: > 100 µM
11 | COc1cccc(-c2nnc3c(-c4ccccc4)nc4ccccc4n23)c1 | inactive: > 100 µM
12 | O=C(NC1C/C(=N/O)c2c(Br)sc(Br)c21)C(F)(F)F (stereo unspecified) | inactive: 31.7 µM
13 | O=C(CC(=O)c1ccc([N+](=O)[O-])cc1)C(=O)Nc1nccs1 | inactive: > 100 µM
14 | O=C(C1OC1c1ccc(Cl)cc1)C12CC3CC(CC(C3)C1)C2 (stereo unspecified) | inactive: 22.5 µM
15 | O=c1nc(NC(c2ccccc2)(c2ccccc2)c2ccccc2)ccn1CCCl | inactive: 25.4 µM
16 | COc1ccc(/C=C2\CCS(=O)(=O)c3ccccc3C2=O)cc1 | inactive: 25.9 µM
17 | CC(C)(C)c1ccc(C(O)(c2ccc(C(C)(C)C)cc2)c2ccc(C(C)(C)C)cc2)cc1 | inactive: > 100 µM
18 | COc1ccc(-c2nc(N)n(C)c2SSc2c(-c3ccc(OC)cc3)nc(N)n2C)cc1 | inactive: 15.7 µM
19 | Cc1ccc(Nc2nc3ccccc3c(=O)n2N)cc1 | inactive: > 100 µM
20 | COc1ccc(C(O)/C(=N\NC(N)=S)c2nc3ccc([N+](=O)[O-])cc3nc2O)cc1OC (stereo unspecified) | inactive: > 100 µM
21 | CC(=O)O[C@H]1CC[C@@]2(C)C(=CC[C@H]3[C@@H]4C[C@H](N5CCN(C)CC5)[C@H](OC(C)=O)[C@@]4(C)CC[C@@H]32)C1 | inactive: 14.8 µM
22 | NC(=O)c1c[se]c(C2OC(COP(=O)(O)CP(=O)(O)OCC3OC(n4cnc5c(N)ncnc54)C(O)C3O)C(O)C2O)n1 (stereo unspecified) | inactive: > 100 µM
23 | O=c1c2cc(I)ccc2nc(S)n1Cc1ccccc1 | inactive: 16.7 µM

Row | Structure (SMILES) | GI50
24 | COc1cc(/C=C2\CCC(C)/C(=C\c3cc(OC)c(OC)c(OC)c3)C2=O)cc(OC)c1OC (stereo unspecified) | inactive: 10.8 µM
25 | O=c1ccc2nc3cc(Br)ccc3sc-2c1 | inactive: > 100 µM
26 | CC(=O)NNc1nc(C)c(C(=O)NNC(=O)C(=O)Nc2ccc([N+](=O)[O-])cc2C#N)s1 | inactive: > 100 µM
27 | Cn1c(=O)c2nc3c4ccccc4c(=O)n(C)c3nc2n(C)c1=O | inactive: > 100 µM
28 | COc1ccc2c(c1)CC[C@@H]1C2CC[C@]2(C)C(=O)N(CCN3CCCC3)C(=O)CC12 (stereo partly specified) | inactive: 21.8 µM
29 | Cc1ccc(/N=N/C(C(=O)c2ccccc2)C(=O)c2ccccc2)cc1 | inactive: 22.1 µM
30 | COC(=O)C1Cc2c([nH]c3ccccc23)C=N1 (stereo unspecified) | inactive: 79.4 µM
31 | O=C(N/S(=N/S(=O)(=O)c1ccc(Br)cc1)C(Cl)(Cl)Cl)c1ccccc1 (stereo unspecified) | inactive: > 100 µM
32 | O=C1/C(=C/c2ccc(O)cc2)CCC1CNc1ccc(Cl)cc1 (stereo unspecified) | inactive: 11.6 µM
33 | N=C(N)NS(=O)(=O)c1ccc(NC(=O)c2cccn3c(=O)c4ccccc4nc23)cc1 | inactive: 68.7 µM
34 | CSc1sc(C)cc1-c1nsc(=O)o1 | inactive: > 100 µM
35 | CCCCN(CCCC)CC(=O)c1ccc2cc(Cl)c3ccccc3c2c1 | inactive: 51.9 µM
36 | CC(=O)CCC[C@@H](C)[C@@H]1O[C@H]([C@@]2(C)CCC(=O)O2)C[C@H]2C(CSc3ccccc3)C(=O)O[C@@H]12 (stereo partly specified) | inactive: 3.7 µM
37 | O=c1c2c3c(sc2nc2n1NC=NN2)CCCC3 | inactive: > 55.3 µM
38 | Cc1cc(S(=O)(=O)NC2=NCc3nc4ccccc4n32)c(S)cc1Cl | inactive: 35.8 µM
39 | COP(=O)(OC)C(=O)N1N(c2ccc([N+](=O)[O-])cc2)C(=O)C(C)NC1(NNc1ccc([N+](=O)[O-])cc1)P(=O)(OC)OC (stereo unspecified) | inactive: > 100 µM
40 | O=C(Cn1c(=O)oc2ccccc21)N(c1ccccc1)c1ccccc1 | inactive: > 100 µM
41 | Cc1ccc([N+](=O)[O-])cc1/N=N/C(=O)NNc1cc([N+](=O)[O-])ccc1C | inactive: 80.4 µM
42 | COc1ccc(OC)c2c(C(=O)O)c(Cc3ccccc3)ccc12 | inactive: > 100 µM
43 | CC[C@@]1(O)C[C@H](OC2CC(N(C)C)C(O)C(C)O2)c2c(O)c3c(c(O)c2[C@H]1OC1CC(N(C)C)C(O)C(C)O1)C(=O)c1cccc(O)c1C3=O (stereo partly specified) | active: 0.0412 µM
44 | CNC(=O)OCc1nc(SC)n(C)c1COC(=O)NC | inactive: 216 µM
45 | CC(C)(C)OC(=O)N1CCCC1C(=O)NC(c1ccccc1)c1ccccc1 (stereo unspecified) | inactive: > 100 µM
46 | COC(=O)/C(C#N)=C(\N)c1c(C)c2ccccc2oc1=N | inactive: > 100 µM

Row | Structure (SMILES) | GI50
47 | CC1=CC(=O)N2[C@H](OC[C@@H]2C(C)C)O1 | inactive: > 100 µM
48 | COc1cc2c(cc1OC)C(C)N(C)c1c-2c(OC(C)=O)cc2cc(OC)c(OC)cc12 (stereo unspecified) | inactive: 20.3 µM
49 | O=[N+]([O-])c1ccc(S[C@@H]2[C@H]3c4c(-c5ccccc5)[nH]c(-c5ccccc5)c4[C@@H]2C[C@H]3Cl)cc1 | inactive: 4.35 µM
50 | O=C1Nc2ccccc2/C1=N/Nc1ccc([N+](=O)[O-])cc1[N+](=O)[O-] | inactive: 24.6 µM
51 | COc1ccc2nc3c(C)cc4ccccc4n3c2c1 | inactive: 92.7 µM
52 | O=C(O)c1nc(-c2ccccn2)c(-c2ccccn2)nc1C(=O)O | inactive: 1.31 µM
53 | COC(=O)c1ccc2c(c1)CC1(C2)Cc2ccccc2C1=O (stereo unspecified) | inactive: > 100 µM
54 | O=C(O)CSCc1cc2c(O)c(c1)Cc1cc(CSCC(=O)O)cc(c1O)Cc1cc(CSCC(=O)O)cc(c1O)Cc1cc(CSCC(=O)O)cc(c1O)C2 | inactive: > 100 µM
55 | CC1C(NNC(N)=O)Oc2cc3c(cc2C1c1ccccc1O)OCO3 (stereo unspecified) | inactive: 39.4 µM
56 | CCCCCCNC(=O)C(C)C1CCC2(C)C=CC(=O)C(C)=C2C1O (stereo unspecified) | inactive: > 100 µM
57 | O=C(c1ccccc1)c1ccc2cccc(OC3OC(CO)C(O)C(O)C3O)c2n1 (stereo unspecified) | inactive: > 100 µM
58 | CCOC(=O)c1cc(C2CCN(Cc3ccccc3)C2=O)c(C(=O)C(=[N+]=[N-])C(C)=O)[nH]1 (stereo unspecified) | inactive: > 100 µM
59 | O=C1CCCC1C(O)(C(F)(F)Cl)C(F)(F)Cl (stereo unspecified) | inactive: > 10 µM
60 | NS(=O)(=O)c1ccc(CNC(=S)NC(=O)Nc2ccc(Cl)c(Cl)c2)cc1 | inactive: 32.9 µM
61 | CCCCCCCCC1=CCC(CN(C)C)C1=O (stereo unspecified) | inactive: > 87.7 µM
62 | COc1ccc(NC(=S)c2ccc([N+](=O)[O-])o2)cc1 | inactive: 2.89 µM
63 | CC(C)C[P+](c1ccccc1)(c1ccccc1)c1ccccc1 | inactive: 16.9 µM
64 | CC(=O)OC1CCC2(C)C(CCC3C4CC=C(C5(C)OCCO5)C4(C)CCC32)C1 (stereo unspecified) | inactive: 33.7 µM
65 | CC(C(=O)n1nnc2ccccc21)N(c1ccccc1)c1ccccc1 (stereo unspecified) | inactive: > 100 µM
66 | COc1ccc(CN(Cc2ccc(OC)cc2)C(=O)CC2(O)CCc3ccccc3C2)cc1 (stereo unspecified) | inactive: > 100 µM
67 | CCOC(=O)c1nc2ccccc2nc1Oc1ccc(OC)cc1 | inactive: > 100 µM
68 | C=CCC1NCCC2=C1C(S(=O)(=O)c1ccc(C)cc1)c1ccccc12 (stereo unspecified) | inactive: 12.8 µM
69 | N#CC(c1nc2ccccc2nc1Cl)S(=O)(=O)c1ccccc1 (stereo unspecified) | inactive: > 100 µM

Row | Structure (SMILES) | GI50
70 | N#C/C(N)=C(C#N)/N=C/N | inactive: > 100 µM
71 | N/C(=N\c1ccc(Cl)cc1)NS(=O)(=O)c1cc(Cl)c(Oc2ccc([N+](=O)[O-])cc2Cl)c(Cl)c1 | inactive: 16.6 µM
72 | C1=C2C3=[N+](CCCCC3)CC2Cc2ccsc21 (stereo unspecified) | inactive: 55.5 µM
73 | C[C@]12CC[C@H](O)CC1=CC[C@@H]1[C@@H]2CC[C@]2(C)NC(=O)/C(=C\c3ccccc3)C[C@@H]12 | inactive: 15.5 µM
74 | CSc1nc(NCc2ccccc2)c2cnn(COCCO)c2n1 | inactive: > 100 µM
75 | C=CCNC(=O)N(CCC)CCCC(NC(C)=O)C(=O)NCc1ccccc1 (stereo unspecified) | inactive: > 100 µM
76 | CC(=O)c1ccccc1NCC(=O)Nn1cnc2ccc(S(=O)(=O)Nc3ccccc3C(C)=O)cc2c1=O | inactive: > 100 µM
77 | CN(C)C(=O)OCOC(=O)N(C)C | inactive: > 100 µM
78 | CN(C)CC1CN=C(N)O1 (stereo unspecified) | inactive: > 100 µM
79 | CC(C)=CC1C(C(=O)Oc2ccccc2C(C)C)C1(C)C (stereo unspecified) | inactive: 31.6 µM
80 | CC1=N/C(=C\c2ccc(N)cc2)C(=O)N1Nc1nnc(NN2C(=O)/C(=C/c3ccc(N)cc3)N=C2C)c2ccccc12 | inactive: 75.2 µM
81 | COc1ccc(C2=Nn3c(nnc(Cc4ccc(Cl)cc4)c3=O)SC2)cc1 | inactive: > 100 µM
82 | NNC(=O)/C(NC(=O)c1ccccc1)=C(\N)c1ccc(Cl)cc1 | inactive: > 100 µM
83 | Cn1cnnc1Sc1c([N+](=O)[O-])nc(-c2ccc([N+](=O)[O-])cc2)n1C | inactive: > 100 µM
84 | CCN(CC)CC1CCCCN1CC(=O)N1c2cc(Cl)ccc2NC(=O)CC1C (stereo unspecified) | inactive: > 100 µM
85 | COc1cc(/C=C/C(=O)Oc2ccc(NC(C)=O)cc2)ccc1C(=O)OCc1ccccc1 | inactive: > 97.7 µM
86 | COC(=O)c1ccc(NCc2cc(OC)ccc2OC)cc1 | inactive: 80 µM
87 | COC1=CC(=O)[C@@]2(C)C(C)[C@H](c3ccccc3)[C@H]2C1=O (stereo partly specified) | inactive: > 100 µM
88 | Nc1nc(N)c(N=O)c(OCC2CCCCC2)n1 | inactive: 26.9 µM
89 | Cc1cc(O)c2c(c1)C[C@@H](O)C1=C2C(=O)c2c(O)ccc(OC3CC(O)C(OC4CC(OC5CCC(OC6CC(O)C(OC7CC(OC8CCC(O)C(C)O8)C(O)C(C)O7)C(C)O6)C(C)O5)C(O)C(C)O4)C(C)O3)c2C1=O (stereo partly specified) | active: 0.192 µM
90 | O=C(O)c1ccc(NS(=O)(=O)Cc2ccccc2)cc1 | inactive: > 100 µM
91 | Cc1cc(C)c2c(O)cc(-c3cccc4ccccc34)nc2n1 | inactive: 1.87 µM

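Exposure lasted 48 hours, with cells grown in 96-well plates and compounds tested at five concentrations. The concentration for 50% growth inhibition is given as GI50.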 The source made the active and inactive calls. No stated cut-off is given here; in the data, active = GI50 up to about 1.1 µM and inactive = higher.
